Measured values: patent publication US20210363269A1 (ALX ONCOLOGY, published 2021)

T1: cynomolgus SIRP-α D1 domain (cyno2) (cynomolgus monkey, UniProt Q5TFQ8 30-148 (human entry), limits assumed)
T1 chain: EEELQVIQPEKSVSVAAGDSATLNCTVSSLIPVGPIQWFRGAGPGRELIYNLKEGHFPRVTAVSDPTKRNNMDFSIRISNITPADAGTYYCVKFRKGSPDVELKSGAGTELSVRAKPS

T2: cynomolgus SIRP-α D1 domain (cyno1) (cynomolgus monkey, UniProt Q5TFQ8 30-148 (human entry), limits assumed)
T2 chain: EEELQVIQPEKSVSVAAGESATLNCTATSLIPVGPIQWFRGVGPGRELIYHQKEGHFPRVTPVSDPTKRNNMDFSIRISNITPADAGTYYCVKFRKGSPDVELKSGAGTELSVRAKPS

T3: mouse 129 SIRP-α D1 domain (mouse (129 strain), UniProt P97797 32-150)
T3 construct: also called m129
T3 chain: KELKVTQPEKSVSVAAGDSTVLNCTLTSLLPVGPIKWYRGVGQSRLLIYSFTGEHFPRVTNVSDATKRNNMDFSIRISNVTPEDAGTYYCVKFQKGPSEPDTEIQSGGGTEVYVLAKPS

T4: C57BL/6 mouse SIRP-α D1 domain (mouse (C57BL/6 strain), UniProt P97797 32-148)
T4 sequence: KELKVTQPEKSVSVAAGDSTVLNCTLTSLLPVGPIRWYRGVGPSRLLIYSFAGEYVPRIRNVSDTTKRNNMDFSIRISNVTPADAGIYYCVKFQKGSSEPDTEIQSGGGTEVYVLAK

T5: high affinity SIRP-α D1 variant CV1-3
T5 chain: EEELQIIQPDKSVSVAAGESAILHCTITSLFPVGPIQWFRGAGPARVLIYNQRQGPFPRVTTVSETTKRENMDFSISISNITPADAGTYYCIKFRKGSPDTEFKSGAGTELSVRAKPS

T6: C57BL/6 mouse SIRP-α D1 domain (mouse (C57BL/6 strain), UniProt P97797 32-148)
T6 sequence: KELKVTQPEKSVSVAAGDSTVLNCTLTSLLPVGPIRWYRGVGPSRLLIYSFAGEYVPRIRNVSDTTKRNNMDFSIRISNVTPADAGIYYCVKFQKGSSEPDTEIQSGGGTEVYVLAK

T7: mouse 129 SIRP-α D1 domain (mouse (129 strain), UniProt P97797 32-150)
T7 construct: also called m129
T7 chain: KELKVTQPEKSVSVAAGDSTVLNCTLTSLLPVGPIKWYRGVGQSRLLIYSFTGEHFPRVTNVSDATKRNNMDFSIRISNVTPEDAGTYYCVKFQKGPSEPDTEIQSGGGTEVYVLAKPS

T8: cynomolgus SIRP-α D1 domain (SEQ ID NO:12) (cynomolgus, UniProt Q5TFQ8 30-148 (human entry), limits assumed)
T8 construct: also called cyno2; Cyno2
T8 chain: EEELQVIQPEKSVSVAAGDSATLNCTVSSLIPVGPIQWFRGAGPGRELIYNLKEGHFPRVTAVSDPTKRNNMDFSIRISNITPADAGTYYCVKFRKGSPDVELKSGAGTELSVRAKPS

T9: cynomolgus SIRP-α D1 domain (SEQ ID NO:11) (cynomolgus, UniProt Q5TFQ8 30-148 (human entry), limits assumed)
T9 construct: also called cyno1
T9 chain: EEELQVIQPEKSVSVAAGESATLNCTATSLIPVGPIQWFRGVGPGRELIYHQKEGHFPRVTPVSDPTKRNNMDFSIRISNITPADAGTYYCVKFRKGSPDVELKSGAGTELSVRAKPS

T10: high affinity SIRP-α D1 variant CV1-3 (human)
T10 chain: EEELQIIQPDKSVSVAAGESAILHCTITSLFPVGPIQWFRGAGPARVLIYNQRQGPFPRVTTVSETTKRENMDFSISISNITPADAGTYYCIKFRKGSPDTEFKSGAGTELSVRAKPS


Columns and labels:
human SIRPγ isoform 1 [1] = biological target: T11, human SIRPγ isoform 1 (human, UniProt Q9P1W8 29-147); test: SPR, Langmuir fit
T11 construct: also called SIRPg; sirpg
Method in brief: (§1)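 Dissociation rate constants (koff) were measured on a ProteOn XPR36 instrument by Langmuir model fitting. Antibody clones in scFv-Fc format were captured from pre-filtered culture media onto a GLC chip with about 4000 RU of amine-coupled anti-human IgG Fc. SIRP analytes ran in PBS pH 7.4 with 0.01% Tween-20 at 25° C, and the model used was 1:1, applied to data double-referenced against interspot and buffer-blank responses.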

[2] = biological target: T1, cynomolgus SIRP-α D1 domain (cyno2); test: SPR, Langmuir fit
Method in brief: as §1

human SIRPβ isoform 1 [3] = biological target: T12, human SIRPβ isoform 1 (human, UniProt O00241 30-148); test: SPR, Langmuir fit
T12 construct: also called SIRPb; sirpb1
Method in brief: as §1

[4] = biological target: T13, human SIRP-α v1 D1 domain (human, UniProt P78324 31-149); test: SPR, Langmuir fit
T13 construct: also called human v1
Method in brief: as §1

[5] = biological target: T14, human SIRP-α v2 D1 domain (human); test: SPR, Langmuir fit
T14 construct: also called human v2
Method in brief: as §1

[6] = biological target: T2, cynomolgus SIRP-α D1 domain (cyno1); test: SPR, Langmuir fit
Method in brief: as §1

[7] = biological target: T3, mouse 129 SIRP-α D1 domain; test: SPR
Method in brief: as §1

[8] = biological target: T4, C57BL/6 mouse SIRP-α D1 domain; test: SPR
Method in brief: as §1

[9] = biological target: T5, high affinity SIRP-α D1 variant CV1-3; test: SPR, Langmuir fit
Method in brief: as §1

[10] = biological target: T6, C57BL/6 mouse SIRP-α D1 domain; test: SPR, captured scFv-Fc
Method in brief: as §1

[11] = biological target: T7, mouse 129 SIRP-α D1 domain; test: SPR, captured scFv-Fc
Method in brief: as §1

human SIRPγ isoform 1 [12] = biological target: T15, human SIRPγ isoform 1 (human, UniProt Q9P1W8 29-147); test: SPR, captured scFv-Fc, 100 nM analyte
T15 construct: also called sirpg; sirp-g
Protocol: (§2) Binding of the antibody clones to various SIRP proteins was determined using surface plasmon resonance (SPR) detection on a ProteOn XPR36 instrument (Bio-Rad, Hercules, Calif.) using phosphate buffered saline (PBS, pH 7.4) supplemented with 0.01% Tween-20 (PBST) as running buffer. The pre-filtered media containing the secreted antibodies was used directly for the assay. First, anti-Human IgG Fc (BR-1008-39, GE Healthcare) was amine-coupled onto a GLC sensor chip to generate the capture surfaces for the antibodies. About 4000 RU per flow cell of immobilized anti-human IgG Fc is achieved. Each clone is screened using the same method as follows.
(§3) (1) ‥5-10 uL of pre-filtered media in 10 mM sodium acetate buffer (pH4.5) was injected for 2 mins at 30 ul/min;
(§4) The koff rates of binding of each clone to each SIRP analyte were determined using SPR (Table C). The SPR screening conditions have been described herein, and the Koff values were determined using Langmuir kinetic fittings. The CD47 blocking properties (block, non-block, kick-off) are described in the last column of the Table C. Each antibody is identified according to its corresponding SEQ ID NO. SIRP analyte sequences are as follows: CV1-3, SEQ ID NO:18; v1, SEQ ID NO:5; v2, SEQ ID NO:6; cyno1, SEQ ID NO:11; cyno2, SEQ ID NO:12; m129, SEQ ID NO:7; NOD, SEQ ID NO: 8; BL6, SEQ ID NO:9; sirpb1, SEQ ID NO:13; sirpg, SEQ ID NO:15.

[13] = biological target: T16, human SIRP-α v1 D1 domain (human, UniProt P78324 31-149); test: SPR, captured scFv-Fc, 100 nM analyte
T16 construct: also called human v1; human α v1
Protocol: as §2, §3, §4

[14] = biological target: T17, human SIRP-α v2 D1 domain (human); test: SPR, captured scFv-Fc, 100 nM analyte
T17 construct: also called human v2; human α v2
Protocol: as §2, §3, §4

[15] = biological target: T8, cynomolgus SIRP-α D1 domain (SEQ ID …); test: SPR, captured scFv-Fc, 100 nM analyte
Protocol: as §2, §3, §4

[16] = biological target: T9, cynomolgus SIRP-α D1 domain (SEQ ID …); test: SPR, captured scFv-Fc, 100 nM analyte
Protocol: as §2, §3, §4

[17] = biological target: T10, high affinity SIRP-α D1 variant CV1-3; test: SPR, captured scFv-Fc, 100 nM analyte
Protocol: as §2, §3, §4

human SIRPβ isoform 1 [18] = biological target: T18, human SIRPβ isoform 1 (human, UniProt O00241 30-148); test: SPR, captured scFv-Fc, 100 nM analyte
T18 construct: also called sirpb1; Sirpb1
Protocol: as §2, §3, §4

human SIRPβ isoform 1, sequence (O00241 30-148 limits assumed): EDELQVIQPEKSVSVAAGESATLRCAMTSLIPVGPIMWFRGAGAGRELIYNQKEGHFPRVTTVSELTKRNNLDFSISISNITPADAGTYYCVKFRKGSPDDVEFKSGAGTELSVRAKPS
human SIRPγ isoform 1, sequence (Q9P1W8 29-147 limits assumed): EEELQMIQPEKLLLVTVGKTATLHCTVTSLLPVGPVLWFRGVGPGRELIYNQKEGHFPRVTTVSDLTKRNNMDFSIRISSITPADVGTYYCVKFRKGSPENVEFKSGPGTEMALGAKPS

Binder	koff (human SIRPγ isoform 1 [1])	koff [2]	koff (human SIRPβ isoform 1 [3])	koff [4]	koff [5]	koff [6]	binding result [7]	binding result [8]	koff [9]	binding result [10]	binding result [11]	koff (human SIRPγ isoform 1 [12])	koff [13]	koff [14]	koff [15]	koff [16]	koff [17]	koff (human SIRPβ isoform 1 [18])
S121 (scFv, scFv-Fc: VL-linker-VH fused to human IgG1 Fc) scFv: EIVLTQSPATLSVSPGERATFSCRASQNVKNDLAWYQQRPGQAPRLLIYAARIRETGIPERFSGSGSGTEFTLTITSLQSEDFAVYYCQQYYDWPPFTFGGGTKVEIKGQSSRSSGGGGSSGGGGSDVQLVESGGGVVQPGGSLRLSCAASGFSFSNFAMTWVRQAPGEGLEWVSTIGSGDTYYADSVKGRFTISRDNSKNTLYLQMNSLRAEDTAVYYCAKDSTVSWSGDFFDYWGLGTLVTVSSSL[letters of human IgG1 Fc with C220S (EU numbers) and a few adjoining residues left out]	0.000482 s⁻¹	0.000319 s⁻¹	0.000564 s⁻¹	0.000479 s⁻¹	0.000112 s⁻¹	0.000302 s⁻¹	no binding (tested: Koff > 5 × 10^3 (legend))	no binding (tested: Koff > 5 × 10^3 (legend))	–	–	–	–	–	–	–	–	–	–
S119 (scFv) scFv: EIVLTQSPATLSVSPGERATFSCRASQNVKNDLAWYQQRPGQAPRLLIYAARIRETGIPERFSGSGSGTEFTLTITSLQSEDFAVYYCQQYYDWPPFTFGGGTKVEIKGQSSRSSGGGGSSGGGGSDVQLLESGGGVVQPGGSLRLSCAASGFSFSNFAMTWVRQAPGEGLEWVSTIGSGDTYYADSVKGRFTISRDNSKNTLYLQMNSLRAEDTAVYYCAKDSTVSWSGDFFDYWGLGTLVTVSSSL[letters of human IgG1 Fc with C220S T223P (EU numbers) and a few adjoining residues left out]	0.000395 s⁻¹	0.00031 s⁻¹	0.000428 s⁻¹	0.000415 s⁻¹	0.000148 s⁻¹	0.000234 s⁻¹	no binding (tested: Koff > 5 × 10^3 (legend))	no binding (tested: Koff > 5 × 10^3 (legend))	0.000565 s⁻¹	–	–	–	–	–	–	–	–	–
S120 (scFv, also called clone 120) scFv: EIVLTQSPATLSVSPGERATFSCRASQNVKNDLAWYQQRPGQAPRLLIYAARIRETGIPERFSGSGSGTEFTLTITSLQSEDFAVYYCQQYYDWPPFTFGGGTKVEIKGQSSRSSGGGGSSGGGGSDVQLVESGGGVVQPGGSLRLSCAASGFSFSNFAMTWVRQAPGEGLEWVSTIGSGDTYYADSVKGRFTISRDNSKNTLYLQMNSLRAEDTAVYYCAKDSTVSWSGDFFDYWGLGTRVTVSSSL[letters of human IgG1 Fc with C220S (EU numbers) and a few adjoining residues left out]	0.000393 s⁻¹	0.000314 s⁻¹	0.000425 s⁻¹	0.000404 s⁻¹	0.000149 s⁻¹	0.000236 s⁻¹	no binding (tested: Koff > 5 × 10^3 (legend))	no binding (tested: Koff > 5 × 10^3 (legend))	0.000626 s⁻¹	–	–	–	–	–	–	–	–	–
S120 scFv-Fc (scFv) scFv: EIVLTQSPATLSVSPGERATFSCRASQNVKNDLAWYQQRPGQAPRLLIYAARIRETGIPERFSGSGSGTEFTLTITSLQSEDFAVYYCQQYYDWPPFTFGGGTKVEIKGQSSRSSGGGGSSGGGGSDVQLVESGGGVVQPGGSLRLSCAASGFSFSNFAMTWVRQAPGEGLEWVSTIGSGDTYYADSVKGRFTISRDNSKNTLYLQMNSLRAEDTAVYYCAKDSTVSWSGDFFDYWGLGTRVTVSSSL[letters of human IgG1 Fc with C220S (EU numbers) and a few adjoining residues left out]	–	–	–	–	–	–	–	–	–	no binding (tested: 100 nM)	no binding (tested: 100 nM)	0.000393 s⁻¹	0.000404 s⁻¹	0.000149 s⁻¹	0.000314 s⁻¹	0.000236 s⁻¹	0.000626 s⁻¹	0.000425 s⁻¹
S119 scFv-Fc (scFv) scFv: EIVLTQSPATLSVSPGERATFSCRASQNVKNDLAWYQQRPGQAPRLLIYAARIRETGIPERFSGSGSGTEFTLTITSLQSEDFAVYYCQQYYDWPPFTFGGGTKVEIKGQSSRSSGGGGSSGGGGSDVQLLESGGGVVQPGGSLRLSCAASGFSFSNFAMTWVRQAPGEGLEWVSTIGSGDTYYADSVKGRFTISRDNSKNTLYLQMNSLRAEDTAVYYCAKDSTVSWSGDFFDYWGLGTLVTVSSSL[letters of human IgG1 Fc with C220S T223P (EU numbers) and a few adjoining residues left out]	–	–	–	–	–	–	–	–	–	no binding (tested: 100 nM)	no binding (tested: 100 nM)	0.000395 s⁻¹	0.000415 s⁻¹	0.000148 s⁻¹	0.00031 s⁻¹	0.000234 s⁻¹	0.000565 s⁻¹	0.000428 s⁻¹
S122 scFv-Fc (scFv) scFv: EIVLTQSPATLSVSPGERATFSCRASQNVKNDLAWYQQRPGQAPRLLIYAARIRETGIPERFSGSGSGTEFTLTITSLQSEDFAVYYCQQYYDWPPFTFGGGTKVEIKGQSSRSSGGGGSSGGGGSDVQLVESGGGVVRPGESLRLSCAASGFRFSNFAMTWVRQAPGEGLEWVSTIGSGDTYYADSVKGRFTISRDNSKNTLYLQMNSLRAEDTAVYYCAKDSTVSWSGDFFDYWGLGTLVTVSSSL[letters of human IgG1 Fc with C220S (EU numbers) and a few adjoining residues left out]	–	–	–	–	–	–	–	–	–	no binding (tested: 100 nM)	no binding (tested: 100 nM)	0.000361 s⁻¹	0.000498 s⁻¹	0.000226 s⁻¹	0.000327 s⁻¹	0.000266 s⁻¹	0.000663 s⁻¹	0.000352 s⁻¹
